The results in this text go back to publication PMC3302758 (Molecular Biology of the Cell, 2012).

The target in the test is T1, 14-3-3β, endogenous in HEK293 cells (human (endogenous in HEK293), UniProt P31946 1-246).
T1 sequence (looked up): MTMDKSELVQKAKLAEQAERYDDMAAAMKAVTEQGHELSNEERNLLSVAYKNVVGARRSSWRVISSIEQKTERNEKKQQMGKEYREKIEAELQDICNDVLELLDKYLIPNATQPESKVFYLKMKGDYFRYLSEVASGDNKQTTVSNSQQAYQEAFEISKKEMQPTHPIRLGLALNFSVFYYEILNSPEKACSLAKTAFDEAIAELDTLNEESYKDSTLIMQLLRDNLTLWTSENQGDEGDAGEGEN
Briefly: co-IP.

B1: Cystic fibrosis transmembrane conductance regulator (CFTR), wild type, transiently expressed in HEK293 cells (natural protein)
chain: not shown
B1: the “fold increase of the co-precipitate with forskolin against basal” value is about 2 fold.
